Whole data set: some 81,000 sequences, median “one-hybrid fitness for binding parS DNA” near -0.17, cut for the highest 2% near 0.51. This is one part of the list.
B1: Caulobacter ParB omega fusion; a variant is named by its letters at X, in order, B8GW30 (parent)
chain: MESVVVGEPGMSEGRRGLGRGLSALLGEVDAAPAQAPGEQLGGSREAPIEILQRNPDQPRRTFREEDLEDLSNSIREKGVLQPILVRPSPDTAGEYQIVAGERAWRAAQRAGLKTVPIMVRELDDLAVLEIGIIENVQRADLNVLEEALSYKVLMEKFERTQENIAQTIGKSXSHVANXMRLLXLPDEVQSYLVSGELTAXHARAIAAAADPVALAKQIIEGGLSVRETEALARKAPNLSAGKSKGGRPPRVKDTDTQALESDLSSVLGLDVSIDHRGSTGTLTITYATLEQLDDLCNRLTRGI

Variants of: B1
Assay: one-hybrid fitness for binding parS DNA (scaled: cognate 1, non-cognate 0); higher = stronger binding
Conditions: with parS DNA site
Summary of the method: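 Caulobacter ParB libraries with four specificity codons randomised were screened by bacterial one-hybrid selection in the E. coli USO strain, using a HIS3 reporter whose site lies 19 bp from the promoter. Selection ran for 48 hours at 37°C on M9 lacking histidine, with 0.1 mM IPTG and 5 mM 3-AT. Plasmids were Illumina-sequenced before and after selection, three replicate libraries were pooled, and variants with under 10 reads were dropped. Fitness is the log change in each variant's read ratio to wild type, rescaled against the cognate and non-cognate sites.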

Variant	one-hybrid fitness for binding parS DNA
IAAY	≤ 0.2
RNQK	≤ 0.2
QFGR	≤ 0.2
VCLY	≤ 0.2
QTLF	≤ 0.2
YRGM	≤ 0.2
QRQT	≤ 0.2
SCYS	≤ 0.2
PWWS	≤ 0.2
DIWR	≤ 0.2
IDCR	≤ 0.2
APQK	≤ 0.2
ILTR	≤ 0.2
EKCR	≤ 0.2
KWNC	≤ 0.2
KRSA	≤ 0.2
GKKV	≤ 0.2
TIKL	≤ 0.2
TTIN	≤ 0.2
VKVQ	≤ 0.2
IQAD	≤ 0.2

Variant	one-hybrid fitness for binding parS DNA
TLPF	≤ 0.2
GKYT	≤ 0.2
PRNY	≤ 0.2
NVPV	≤ 0.2
LCYR	≤ 0.2
LKLD	≤ 0.2
FSML	≤ 0.2
IPTT	≤ 0.2
PHHM	≤ 0.2
FPRN	≤ 0.2
HAAT	≤ 0.2
FGQT	≤ 0.2
PQTR	≤ 0.2
LFKI	≤ 0.2
MGHQ	0.369
WCKK	≤ 0.2
YIPR	≤ 0.2
YGMS	≤ 0.2
WQRT	≤ 0.2
RLHS	0.96
MTVE	≤ 0.2

Variant	one-hybrid fitness for binding parS DNA
FHGL	≤ 0.2
VSSY	≤ 0.2
LTPS	≤ 0.2
RLDW	≤ 0.2
IAER	≤ 0.2
ITHG	≤ 0.2
IKRY	≤ 0.2
HTFS	≤ 0.2
VGHS	≤ 0.2
WLYS	≤ 0.2
YKHG	≤ 0.2
YGSR	≤ 0.2
IYKA	≤ 0.2
SPRY	≤ 0.2
KEYR	≤ 0.2
IIRP	≤ 0.2
HLMV	≤ 0.2
TREV	≤ 0.2
CPAV	≤ 0.2
DVAG	≤ 0.2
DSNL	≤ 0.2

Variant	one-hybrid fitness for binding parS DNA
HKQR	≤ 0.2
RLYW	0.279
YIKS	≤ 0.2
SQER	≤ 0.2
SVTL	≤ 0.2
QIER	≤ 0.2
ASIS	≤ 0.2
MQAR	≤ 0.2
TEHG	≤ 0.2
MYDS	≤ 0.2
QVAC	≤ 0.2
PCTE	≤ 0.2
SGQW	≤ 0.2
TREM	≤ 0.2
YHKA	≤ 0.2
REYD	≤ 0.2
WFRY	≤ 0.2
LHNG	≤ 0.2
QWTV	≤ 0.2
PLYY	≤ 0.2
IQNG	≤ 0.2

From a collection of fitness landscapes (doi:10.1016/j.celrep.2020.107928)
